Laboratory results as given in the supplement of paper PMC9151546.
Repeats are few or missing, and single values can be far off.

Legend:
CHO-K1 [1] = experiment: micronucleus frequency (% of nucleated events); higher = more micronuclei (genotoxic)
CHO-K1 [2] = experiment: relative survival (nuclei to bead ratio vs DMSO control) (% of vehicle control); higher = more surviving cells
Method: (§1)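 Flow-cytometric in vitro micronucleus assay (Litron MicroFlow) in CHO-K1 cells in 96-well plates, 19 concentrations (4.5-200 µM, n=1 per concentration). Without S9, cells were exposed for 24 h and sampled at 48 h. With Aroclor 1254-induced rat liver S9, cells were exposed for 3-4 h and sampled at 27-28 h. Read-outs are %MN and %hypodiploid nuclei relative to nucleated events, and relative survival as the nuclei-to-bead ratio versus the 1% DMSO vehicle control (x100).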

CHO-K1 [3] = experiment: hypodiploid nuclei frequency (% of nucleated events); higher = more hypodiploid events (aneugenic)
Method: as §1
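Throughout, for hypodiploid nuclei frequency (% of nucleated events): hypodiploid nuclei gated on a flow cytometer with 488 nm excitation after SYTOX Green staining, cultures at 37 °C, positive controls vinblastine without S9 and cyclophosphamide with S9.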
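Throughout, for micronucleus frequency (% of nucleated events): cells lysed with nuclei stained by SYTOX Green, then micronucleus-gated events counted against nucleated events by flow cytometry with 488 nm excitation.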
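Throughout, for relative survival (nuclei to bead ratio vs DMSO control): Lysed-cell nuclei stained with SYTOX Green and counted against counting beads by flow cytometry at 488 nm excitation, with vinblastine (no S9) and cyclophosphamide (plus S9) as positive controls.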

CCOC(=O)c1ccccc1C(=O)OCC [Diethyl phthalate]
Conditions	hypodiploid nuclei frequency, CHO-K1 [3] [%]	micronucleus frequency, CHO-K1 [1] [%]	relative survival, CHO-K1 [2]
concentration: 4.5 (µM), S9 metabolic activation: with S9, exposure time: 3-4 hours	0.38	2.46	89.8
concentration: 4.5 (µM), S9 metabolic activation: without S9, exposure time: 24 hours	0.88	1.76	110
concentration: 5.63 (µM), S9 metabolic activation: with S9, exposure time: 3-4 hours	0.42	1.8	86
concentration: 5.63 (µM), S9 metabolic activation: without S9, exposure time: 24 hours	0.98	1.84	115
concentration: 7.04 (µM), S9 metabolic activation: with S9, exposure time: 3-4 hours	0.26	2.66	89.6
concentration: 7.04 (µM), S9 metabolic activation: without S9, exposure time: 24 hours	0.78	1.58	120
concentration: 8.8 (µM), S9 metabolic activation: with S9, exposure time: 3-4 hours	0.34	1.6	66.5
concentration: 8.8 (µM), S9 metabolic activation: without S9, exposure time: 24 hours	0.88	1.94	105
concentration: 11 (µM), S9 metabolic activation: with S9, exposure time: 3-4 hours	0.26	1.84	78.6
concentration: 11 (µM), S9 metabolic activation: without S9, exposure time: 24 hours	0.98	1.66	112
concentration: 13.7 (µM), S9 metabolic activation: with S9, exposure time: 3-4 hours	0.34	2.08	81.1
concentration: 13.7 (µM), S9 metabolic activation: without S9, exposure time: 24 hours	0.76	1.7	107
concentration: 17.2 (µM), S9 metabolic activation: with S9, exposure time: 3-4 hours	0.12	1.24	94.5
concentration: 17.2 (µM), S9 metabolic activation: without S9, exposure time: 24 hours	0.86	1.46	118
concentration: 21.5 (µM), S9 metabolic activation: with S9, exposure time: 3-4 hours	0.32	2.16	83.8
concentration: 21.5 (µM), S9 metabolic activation: without S9, exposure time: 24 hours	0.88	1.76	105
concentration: 26.8 (µM), S9 metabolic activation: with S9, exposure time: 3-4 hours	0.3	2.16	95.1
concentration: 26.8 (µM), S9 metabolic activation: without S9, exposure time: 24 hours	0.76	1.66	101
concentration: 33.6 (µM), S9 metabolic activation: with S9, exposure time: 3-4 hours	0.32	2.66	101
concentration: 33.6 (µM), S9 metabolic activation: without S9, exposure time: 24 hours	0.86	1.82	104
concentration: 41.9 (µM), S9 metabolic activation: with S9, exposure time: 3-4 hours	0.24	1.92	88.2
concentration: 41.9 (µM), S9 metabolic activation: without S9, exposure time: 24 hours	1.06	1.62	89.8
concentration: 52.4 (µM), S9 metabolic activation: with S9, exposure time: 3-4 hours	0.24	2.68	81.3
concentration: 52.4 (µM), S9 metabolic activation: without S9, exposure time: 24 hours	0.96	2.32	93.8
concentration: 65.5 (µM), S9 metabolic activation: with S9, exposure time: 3-4 hours	0.38	1.76	79.2
concentration: 65.5 (µM), S9 metabolic activation: without S9, exposure time: 24 hours	0.96	1.9	96.9
concentration: 81.9 (µM), S9 metabolic activation: with S9, exposure time: 3-4 hours	0.2	2.22	92.2
concentration: 81.9 (µM), S9 metabolic activation: without S9, exposure time: 24 hours	1.28	2.18	109
concentration: 102 (µM), S9 metabolic activation: with S9, exposure time: 3-4 hours	0.26	2.26	79.2
concentration: 102 (µM), S9 metabolic activation: without S9, exposure time: 24 hours	1.44	2.34	94.3
concentration: 128 (µM), S9 metabolic activation: with S9, exposure time: 3-4 hours	0.16	2.7	82.6
concentration: 128 (µM), S9 metabolic activation: without S9, exposure time: 24 hours	1.52	1.96	90.5
concentration: 160 (µM), S9 metabolic activation: with S9, exposure time: 3-4 hours	0.42	1.86	83.7
concentration: 160 (µM), S9 metabolic activation: without S9, exposure time: 24 hours	2.22	2.84	127
concentration: 200 (µM), S9 metabolic activation: with S9, exposure time: 3-4 hours	0.18	2.36	78.6
concentration: 200 (µM), S9 metabolic activation: without S9, exposure time: 24 hours	2.22	2.78	89.4
